Z-score data for 113 compounds are collected here from PubChem BioAssay AID488969 (Vanderbilt High Throughput Screening Facility, 2010).

The full ranking holds about 110,000 compounds; the median of “z-score” is about -0.1, and the highest 2% start at about 2. The list shows a part of the results. Calls of active or inactive are those of the source.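 Rule for the calls: active = z-score in the third read window above 3 or below -3; inactive = the rest.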

This test deals with Metabotropic glutamate receptor 8 (Rattus norvegicus) (UniProt P70579). In words: mGluR8 Gi/Go-coupled signaling modulation – cell-based, rat, thallium flux, HTS, primary screen (AID 488969). The following applies: HEK293 rat mGluR8, GIRK (G protein-gated inwardly rectifying potassium channel) thallium flux, FluoZin2; at 10 µM; stronger effect = higher value; submaximal glutamate (EC20) added with thallium.
UniProt P70579, sequence (P70579 whole entry, looked up): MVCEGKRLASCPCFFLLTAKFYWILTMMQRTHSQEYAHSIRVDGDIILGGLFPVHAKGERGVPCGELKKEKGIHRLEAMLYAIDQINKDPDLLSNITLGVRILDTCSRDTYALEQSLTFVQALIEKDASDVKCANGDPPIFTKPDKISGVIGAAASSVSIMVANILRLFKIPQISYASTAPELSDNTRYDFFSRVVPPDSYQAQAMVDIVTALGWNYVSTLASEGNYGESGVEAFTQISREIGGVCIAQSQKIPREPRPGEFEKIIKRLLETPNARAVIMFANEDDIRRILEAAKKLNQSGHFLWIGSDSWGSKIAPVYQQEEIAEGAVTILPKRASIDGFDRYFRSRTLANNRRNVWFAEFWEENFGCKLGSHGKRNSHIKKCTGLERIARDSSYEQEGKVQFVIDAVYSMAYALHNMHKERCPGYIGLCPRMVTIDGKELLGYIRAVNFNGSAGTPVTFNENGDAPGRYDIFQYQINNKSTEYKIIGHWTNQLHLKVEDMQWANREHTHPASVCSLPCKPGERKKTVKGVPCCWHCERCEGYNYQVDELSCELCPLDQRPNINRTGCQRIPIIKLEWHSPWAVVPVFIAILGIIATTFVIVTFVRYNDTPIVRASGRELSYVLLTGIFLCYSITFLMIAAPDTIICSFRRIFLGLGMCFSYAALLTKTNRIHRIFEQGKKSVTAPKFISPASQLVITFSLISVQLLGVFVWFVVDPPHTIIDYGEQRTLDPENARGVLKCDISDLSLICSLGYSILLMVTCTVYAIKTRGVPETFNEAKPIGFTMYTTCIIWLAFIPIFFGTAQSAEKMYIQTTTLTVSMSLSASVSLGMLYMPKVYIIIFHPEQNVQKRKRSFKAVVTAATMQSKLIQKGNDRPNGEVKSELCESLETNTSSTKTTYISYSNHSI
As to `CC(C)(C)C(=O)NNC(=O)CCCOc1ccc(Cl)cc1Cl`, the z-score turned out to be 0.321.

With `Cc1ccnc(NS(=O)(=O)c2cccs2)c1`, the z-score is -0.961.

Turning to `COc1ccc2c(OC)cc(=O)n(C)c2c1`, the z-score was found to be 0.0468.

`CCC(c1nnnn1CCOC)N(Cc1ccc(C)cc1)Cc1cc2cc(OC)ccc2[nH]c1=O` (stereo not drawn) registered a z-score of 0.378.

`Cc1c(Cl)cccc1NC(=O)CCCCCN1C(=O)CCC1=O` yielded a z-score of 0.184.

For the compound `COc1ccc(C(=O)/C=C/Nc2ccc([N+](=O)[O-])cc2C)c(OC)c1`, the z-score was -0.189.

As for `O=C(Nc1nc(-c2cccs2)cs1)c1cccc(S(=O)(=O)N2CCCCCC2)c1`, the z-score is -1.41.

Turning to `Cc1ccc(-n2c(C)c([N+](=O)[O-])c3ccc(O)c(CN(C)C)c32)cc1`, the z-score amounted to 0.912.

In the case of `CCOC(=O)C1CCCN(C(=O)C2CCN(S(=O)(=O)c3cccs3)CC2)C1` (stereo not drawn), the z-score is 0.124.

Regarding `Cc1ccc2nc3ccc(N4CCCC4)nn3c(=O)c2c1`, the z-score is -0.187.

With `Cc1nn(-c2ccccc2)c(Cl)c1C(=O)OC(C)C(=O)NC(=O)NC1CCCCC1` (stereo not drawn), the z-score is -0.188.

Consider `O=C(NN1C(=O)c2cc(Br)ccc2NC1c1cc(Br)cc(Br)c1O)c1ccncc1` (stereo not drawn), for which the z-score is -0.291.

Take `CCC(C)NC(=O)c1cc2cc3ccc(OC)cc3nc2s1` (stereo not drawn): the z-score was -0.165.

As for `O=C1CCCC(=O)N1c1ccc(N2CCN(c3ccccc3)CC2)c([N+](=O)[O-])c1`, the z-score was 0.041.

As for `COc1ccc(C2/C(=C(/O)c3ccccc3)C(=O)C(=O)N2C)cc1` (stereo not drawn), the z-score is -0.0789.

With `CCc1cccc(OCC(=O)Nc2ccc(S(=O)(=O)Nc3onc(C)c3C)cc2)c1`, the z-score is -0.0589.

`O=C(NNC(=O)[C@@H]1CCCC[C@@H]1C(=O)O)c1cccs1` showed a z-score of 0.534.

As for `Cc1cccc(-c2nc(=S)c3c(n2Cc2ccco2)CCCC3)c1`, the z-score turned out to be 0.581.

`CC(C)(C#N)C(C)(C)c1nn[nH]n1` yielded a z-score of 0.00414.

In the case of `c1ccc(Nc2ccc3c4c(cccc24)CC3)cc1`, the z-score is -0.0596.

As to `Cc1ccc2nc(SCC(=O)c3c(C)[nH]c4ccccc34)[nH]c2c1`, the z-score is -0.393.

As to `COc1ccc(-n2c(CCc3ccccc3)nnc2SCC(=O)NCc2ccccc2)cc1`, the z-score is -0.43.

The compound `CCSc1cc(N2CCCC2)nc(-c2ccc(F)cc2)n1` showed a z-score of 0.0348.

Consider `COc1cccc(C(=O)N2CCN=C2SCc2cccnc2)c1OC`, for which the z-score worked out at 0.652.

For `CNc1ccc(/C=C2\COc3ccccc3C2=O)cc1[N+](=O)[O-]`, the z-score worked out at 0.708.

In the case of `COc1cccc(CN2CCN(CC(=O)Nc3ccccc3Cl)CC2)c1`, the z-score was -0.367.

Compound `Cc1ccc(SC(C)C(=O)N2CCCC2)cc1` (stereo not drawn) had a z-score of 0.69.

As for `Cc1ccnc(Sc2ccc([N+](=O)[O-])cc2[N+](=O)[O-])n1`, the z-score was -0.281.

Take `Cc1ccc(NN2C(=O)C=C(c3ccc(Cl)cc3)C2=O)cc1`: the z-score was -0.381.

As to `Cc1cc(=O)oc2cc(OC(C)C(=O)Nc3nccs3)ccc12` (stereo not drawn), the z-score is -0.273.

`COc1ccc(S(=O)(=O)CCC(=O)NCCc2ccc(C)cc2)cc1`: the z-score was -0.152.

For the compound `C=CCn1c(CCNC(=O)c2cccs2)nnc1SCC(=O)Nc1cccc(C(C)=O)c1`, the z-score was -1.09.

In turn, `N=c1ccn(Cc2cccc(Cl)c2)cc1` displayed a z-score of 1.07.

As for `O=C(Nc1ccncc1)c1c(F)cccc1F`, the z-score is 0.441.

`CCOc1ccc2[nH]c(C)c(CN3CCCCC3)c(=O)c2c1` displayed a z-score of 0.668.

Turning to `COCCOc1ccc(C(F)(F)F)cc1NC(=O)COC(=O)c1c(C)noc1C`, the z-score is -0.835.

For the compound `O=C1OCC(CO)(CO)N=C1NNc1ccccc1Cl`, the z-score was -0.0533.

For `N#CC1=C(S)N(c2ccccc2)C(c2ccc(-c3cccc(Cl)c3)o2)NC1=O` (stereo not drawn), the z-score is -0.292.

In turn, `FC(F)Oc1cccc2cccnc12` displayed a z-score of 0.447.

Turning to `COc1cccc(NC(=O)Cn2c(SCC(=O)N3CCOCC3)nc3ccccc32)c1`, the z-score came out at 0.619.

With `COc1ccc(-c2nnc3sc(C(C)N4C(=O)c5ccccc5C4=O)nn23)cc1` (stereo not drawn), the z-score was -0.348.

For `Cc1cc(C)cc(NC(=O)c2oc3ccccc3c2COc2ccccc2)c1`, the z-score was -0.32.

Take `O=C(CN1C(=O)c2cccc3cccc(c23)C1=O)N1CCCCC1`: the z-score was -0.0957.

As to `COc1ccc(Cl)cc1NC(=O)CSc1nc(N2CCCCC2)nc(N2CCCCC2)n1`, the z-score came to 0.133.

For `CCOC(=O)N1CCC(NC(=O)c2csc3c2CCCC3)CC1`, the z-score was -0.438.

Consider `Cc1ccc(NC(=O)CN2C(=O)N/C(=C/c3ccco3)C2=O)cc1`, for which the z-score was -0.182.

`O=C(Nc1cccc(C(F)(F)F)c1)c1cccnc1N1CCN(CCO)CC1` registered a z-score of 0.082.

`Cc1nn(Cc2ccc(Cl)cc2)c(C)c1NC(=O)Cn1nc([N+](=O)[O-])c(Cl)c1C`: the z-score is 0.387.

`CN(C)CCOC(=O)C1(c2ccccc2)CCCC1`: the z-score was determined as 0.259.

`COC(=O)CCN(C(=O)c1ccc(OC(C)=O)cc1)c1ccccn1`: the z-score was -0.331.

With `Cc1cccc(OCCNC(=O)c2cncc(Br)c2)c1`, the z-score was -0.527.

In the case of `COc1cccc(C(=O)Nc2cccc(C(=O)NC3=NN(c4c(Cl)cc(Cl)cc4Cl)C(=O)C3)c2)c1`, the z-score is -0.318.

In the case of `CCOc1ccc(NC(=O)N(CC(C)C)CC(C)C)cc1`, the z-score is -0.0312.

In the case of `Cc1cc(C)c2cc(CN(Cc3ccc4c(c3)OCO4)Cc3nnnn3Cc3ccco3)c(=O)[nH]c2c1`, the z-score came out at 0.45.

As to `Cc1ccc(C2Nc3cccc4cccc(c34)N2)s1`, the z-score was -0.35.

For `O=c1c2ccc(Cl)cc2[nH]c(=S)n1Cc1cccnc1`, the z-score turned out to be 2.08.

Regarding `Cc1ccc(Cl)cc1N1CCN(C(=O)CSc2ccsc2[N+](=O)[O-])CC1`, the z-score was -0.239.

Turning to `Cc1occc1C(=O)NCCCc1ccccc1`, the z-score is -0.0626.

Take `Cc1cccc(Nc2nc(N3CCN(C)CC3)nc(N)c2[N+](=O)[O-])c1`: the z-score was -0.951.

Regarding `O=C(C1=C(O)C(=O)N(CCCN2CCOCC2)C1c1ccncc1)c1cc2ccccc2o1` (stereo not drawn), the z-score was -0.0427.

For `O=c1ccccn1CCOc1ccccc1Cl`, the z-score was -0.533.

The compound `CCOC(=O)c1ccc(NC(=O)CC2OCCN(CC)C2=O)cc1` (stereo not drawn) came in with a z-score of 0.162.

With `Cn1c(=O)oc2cc(S(=O)(=O)N3CCCc4ccccc43)ccc21`, the z-score was -0.344.

With `CS(=O)(=O)N1CCN(c2ccccc2NC(=O)c2ccc3ccccc3c2)CC1`, the z-score was -0.833.

Consider `CCN(CC)S(=O)(=O)c1ccc(/C=C/C(=O)Nc2ccc(F)c(F)c2F)cc1`, for which the z-score was -0.0872.

Take `COc1cc(/C=N/Nc2ccc([N+](=O)[O-])cc2S(=O)(=O)N2CCOCC2)cc(OC)c1OC`: the z-score was -0.0588.

For `CN1CCN(C2=CC(=O)OC23CCCCC3)CC1`, the z-score amounted to 0.371.

For `c1ccc2c(Cn3nnc4ccccc43)cccc2c1`, the z-score was 1.12.

On to `COc1ccc(Cc2nnc(NC(=O)c3ccc(Cl)c([N+](=O)[O-])c3)s2)cc1`, for which the z-score is -0.0406.

As to `CCOC(=O)C1=NN(c2ccc([N+](=O)[O-])cc2)CC1C(=O)OC` (stereo not drawn), the z-score is -0.173.

`CC(=O)Cc1nsc(NC(=O)c2ccco2)n1`: the z-score was -0.0674.

Take `COC(=O)CN(c1cccc(C(C)=O)c1)S(C)(=O)=O`: the z-score is 0.274.

`CCOC(=O)c1sc(NC(=O)CSc2nc(C)cc(C)n2)c(C#N)c1C`: the z-score is -0.474.

As to `O=C(NCc1ccc2c(c1)OCO2)c1ccc(S(=O)(=O)NCC2CCCO2)cc1` (stereo not drawn), the z-score was -0.139.

`Cn1c(SCCCC(=O)c2ccc(F)cc2)nnc1-c1ccncc1`: the z-score was -0.282.

`Cc1ccc(C(=O)N(CN2CCCC2=O)c2ccccc2)cc1C`: the z-score is -0.166.

Consider `CCOc1ccccc1NC(=O)c1cc(S(=O)(=O)N2CCC3(CC2)OCCO3)ccc1F`, for which the z-score was -0.432.

In the case of `OCCSc1nncn1/N=C/c1c[nH]c2ccccc12`, the z-score was -0.376.

Regarding `Cc1ccc(S(=O)(=O)Nc2nonc2C)cc1`, the z-score is -0.752.

As to `O=C(COn1nnc2ccc(Cl)cc21)NC12CC3CC(CC(C3)C1)C2`, the z-score worked out at 0.819.

For `COc1ccccc1NC(=O)CSc1nnc(-c2ccoc2C)n1CCc1ccccc1`, the z-score was -0.845.

Consider `COC(=O)C(C(=O)OC)C(C)C(C(=O)OC)C(=O)OC`, for which the z-score was -0.0347.

As for `O=C(/C=C/c1cccc2ccccc12)c1ccncc1`, the z-score is -0.377.

`Cc1ccc(S(=O)(=O)/N=C(\c2ccccc2)N(C)S(=O)(=O)c2ccccc2)cc1` returned a z-score of 0.936.

`CN(C1=C(NC(=O)c2ccccc2)C(=O)c2ccccc2C1=O)C1CCS(=O)(=O)C1` (stereo not drawn) showed a z-score of 0.0726.

Take `CC(=O)Nc1cc(-c2nn3c(C)nnc3s2)ccc1C`: the z-score worked out at 0.478.

Take `Cn1cccc1CNC1CCCCC1`: the z-score came to 0.335.

In the case of `Cc1ccccc1OCC(=O)NNC(=O)Nc1ccc(Cl)cc1`, the z-score is -0.105.

As for `Cc1cccc(OCC(O)CN2C(C)(C)CC(O)CC2(C)C)c1` (stereo not drawn), the z-score is active: 9.44.

`COC(=O)c1cc(OC)c(OCc2cc(C(=O)OC)oc2C)c(OC)c1` displayed a z-score of 0.014.

As for `Cc1oncc1C(=S)Nc1ccccc1`, the z-score is active: 12.4.

In the case of `O=C1CNC(=O)/C1=C/c1ccc(O)cc1`, the z-score came out at 0.0509.

For `CCN=C1SC(CC(=O)NCC)C(=O)N1CC` (stereo not drawn), the z-score is -0.21.

For the compound `CCCCCCCc1c(C)nc(N2CCOCC2)[nH]c1=O`, the z-score is -0.697.

`CCOc1cc(S(=O)(=O)N(CC)CC)ccc1F` had a z-score of 0.423.

As to `O=C(CN1CCC(Cc2ccccc2)CC1)Nc1ccc2c(c1)OCCO2`, the z-score was -0.425.

On to `Cc1onc(-c2c(F)cccc2Cl)c1C(=O)NCc1ccccn1`, for which the z-score is -0.465.

For the compound `C[C@H](N)c1nnc(SCc2ccc(Cl)cc2Cl)o1`, the z-score was found to be 0.0221.

As to `COc1cccc(-c2nc(CS(=O)CC(=O)NCc3ccccc3Cl)c(C)o2)c1` (stereo not drawn), the z-score worked out at 0.0151.

With `COc1cccc(NC(=S)N2CCc3cc(OC)c(OC)cc3C2COc2ccc3c(C)cc(=O)oc3c2)c1` (stereo not drawn), the z-score was -0.0316.

`Cn1c(=O)c2c(SCc3cccnc3)nc(CC(C)(C)C)nc2n(C)c1=O`: the z-score was -0.231.

`COc1ccc(-c2cc(C(=O)NCCN3CCOCC3)c3ccccc3n2)cc1` gave a z-score of 0.368.

As to `CN(C)CCCN(C(=O)CCc1ccccc1)c1nc2ccc(F)cc2s1`, the z-score is 0.318.

In the case of `CN1CCCc2cc(C=O)ccc21`, the z-score is -0.347.

On to `C=C1N(c2ccc(Cl)cc2)C(=O)OC1(C)C`, for which the z-score was determined as 0.433.

Turning to `Cn1nnc2cc(C(=O)N3CCCCCC3)ccc21`, the z-score is -0.0563.

In turn, `Cn1cc(C(=O)Nc2cccc(F)c2)cn1` had a z-score of 0.0603.

For `CCC(CC)NC(=O)c1ccc2nc[nH]c2c1`, the z-score is -0.0567.

On to `COc1ccccc1NC(=O)CC(=O)CSc1nnc(-c2ccc(C)cc2)n1-c1ccccc1`, for which the z-score was -0.428.

Consider `CC(O)CN=c1cc(-c2ccccc2)oc2ccc(Cl)cc12` (stereo not drawn), for which the z-score is -0.64.

Consider `S=C(NCc1cccs1)Nc1ccc(Cl)cc1`, for which the z-score turned out to be 0.118.

Turning to `CC(C)CCC(CC(C)O)c1n[nH]c(=S)n1-c1ccccc1` (stereo not drawn), the z-score is -0.206.

Take `CCOC(=O)c1c(CN(C)C)n(-c2ccc(C)cc2)c2cc(Br)c(O)cc12`: the z-score was determined as 0.129.
